According to patent US20100331233A1, “CRYSTAL OF XPA AND ERCC1 COMPLEX AND USES THEREOF” (priority 2007, published 2010):
No end group written: not given here.

Test system: NER activity in HeLa cell extracts
Experiment: In vitro NER assay: excision of a 1,3-intrastrand cisplatin adduct from plasmid in HeLa cell extract with XPA peptide
Conditions: HeLa cell free extract, plasmid with 1,3-cisplatin intrastrand crosslink, peptide 46 nM to 92 μM
Experimental: FIG. 4 illustrates that the XPA67-80 peptide is an effective inhibitor of NER activity. […]; lanes 2 and 7, 46 nM XPA peptide; lanes 3 and 8, 460 nM; lanes 4 and 9, 4.6 μM; lanes 5 and 10, 46 μM; lanes 6 and 11, 92 μM). […] Biol., 113, 373-392). The marker DNA ladder is labeled LMW DNA ladder. […] . The DNA substrate and the cleavage products are indicated.
One way to determine inhibition of NER activity is by determining the level of characteristic NER excision products in the presence or absence of increasing concentrations of a test compound. For example, as exemplified below, the excision of an oligonucleotide containing damage from a plasmid in a cell-free NER-proficient cell extract and the effects of a putative NER inhibitor on this reaction can be measured by radioactive labeling and analysis by denaturing PAGE. Inhibition of formation of an XPA-ERCC1 complex can be determined by, for example, by a competitive binding assay. […] Binding of a competitor is detected as a loss of fluorescence polarization. Fluorescence polarization detection is centered on the principle that smaller molecules rotate faster than larger molecules in solution. […] Fluorescence can be used to probe these differences in rotation rates since the time required for a fluorophore to emit a photon after excitation requires a measurable amount of time, typically in the nanosecond range for most fluorophores. […]

## KIIDTGGGFILEEE [XPA67-80]
  effect on NER excision of the lesion-containing oligonucleotide: complete inhibition was achieved at a concentration of XPA peptide in the low micromolar range
